Results are given in words; binding and its absence hold for the method and conditions named. In cells and extracts the contact can be indirect. Some binding calls cover weakened binding; strength is not graded here.
Experiments:
[1] = biological target: T1, p21 (CDKN1A), endogenous in WT MEFs (mouse (endogenous in MEFs)) (UniProt P39689); assay: condition: only without torin-1 (untreated cells, 4E-BP1 phosphorylated by mTORC1); co-IP; p21 immunoprecipitated from untreated WT MEFs (no torin-1) in the presence of MG132 (25 uM); western blot
T1 sequence: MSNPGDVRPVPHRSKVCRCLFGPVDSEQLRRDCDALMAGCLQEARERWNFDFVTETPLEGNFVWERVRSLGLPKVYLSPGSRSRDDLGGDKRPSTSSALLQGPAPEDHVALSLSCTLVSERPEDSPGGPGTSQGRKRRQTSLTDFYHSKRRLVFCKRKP

Sequences of proteins named here, by UniProt entry; tags and fusion partners are left off. A change or cut given only in a name is not applied to a line headed by its entry. A line that says so, or that is headed by a name, gives the form on record, which may keep a tag or linker.
UniProt P38936: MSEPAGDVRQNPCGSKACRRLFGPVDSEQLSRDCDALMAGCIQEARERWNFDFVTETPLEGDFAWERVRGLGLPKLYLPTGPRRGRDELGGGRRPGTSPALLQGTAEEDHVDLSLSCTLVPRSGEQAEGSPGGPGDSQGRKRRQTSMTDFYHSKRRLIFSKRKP
UniProt Q13541: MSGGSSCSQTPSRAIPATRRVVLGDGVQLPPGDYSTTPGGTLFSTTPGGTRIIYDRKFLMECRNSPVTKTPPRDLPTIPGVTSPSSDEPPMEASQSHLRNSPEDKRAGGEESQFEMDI
4E-BP1-4A (phosphorylation-defective mutant), transfected in 293T cells (Q13541, form named): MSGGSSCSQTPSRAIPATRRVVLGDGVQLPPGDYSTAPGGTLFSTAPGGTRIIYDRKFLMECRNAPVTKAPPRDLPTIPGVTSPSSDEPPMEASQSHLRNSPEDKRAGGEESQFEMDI
4E-BP1-4A+LM-AA (eIF4E-binding-defective double mutant), Tet-On inducible in HCT116 cells (Q13541, form named): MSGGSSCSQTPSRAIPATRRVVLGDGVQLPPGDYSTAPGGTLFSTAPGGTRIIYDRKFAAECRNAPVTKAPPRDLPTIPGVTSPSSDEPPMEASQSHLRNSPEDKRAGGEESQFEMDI
UniProt P06730: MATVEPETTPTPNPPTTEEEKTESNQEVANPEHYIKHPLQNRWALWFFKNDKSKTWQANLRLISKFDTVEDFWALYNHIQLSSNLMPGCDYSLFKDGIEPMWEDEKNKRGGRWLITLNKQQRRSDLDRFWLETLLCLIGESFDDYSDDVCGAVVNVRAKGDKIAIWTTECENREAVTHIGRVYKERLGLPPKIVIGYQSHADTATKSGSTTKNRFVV
UniProt Q60876: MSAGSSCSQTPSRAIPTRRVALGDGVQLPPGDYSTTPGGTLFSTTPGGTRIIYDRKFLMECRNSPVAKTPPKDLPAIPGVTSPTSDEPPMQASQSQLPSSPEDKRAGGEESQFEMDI

[2] = biological target: T1, p21 (CDKN1A), endogenous in WT MEFs (mouse (endogenous in MEFs)); assay: co-IP; p21 immunoprecipitated from WT MEFs treated with torin-1 (250 nM) for 6 hours in the presence of MG132 (25 uM); lysis buffer 50 mM Tris pH8, 1 mM EDTA, 120 mM NaCl, 1% NP40; western blot
[3] = biological target: p21 (CDKN1A), endogenous in human cell lines U2OS and HCT116 (human (endogenous in U2OS and HCT116)) (UniProt P38936); assay: condition: only with rapamycin (4E-BP1 still phosphorylated); co-IP; endogenous proteins in U2OS and HCT116 cells with rapamycin, in the presence of MG132
[4] = biological target: p21 (CDKN1A), endogenous in human cell lines U2OS and HCT116 (human (endogenous in U2OS and HCT116)) (UniProt P38936); assay: condition: only without torin-1 (untreated cells, 4E-BP1 phosphorylated by mTORC1); co-IP; endogenous proteins in U2OS and HCT116 cells without torin-1, in the presence of MG132
[5] = biological target: p21 (CDKN1A), endogenous in human cell lines U2OS and HCT116 (human (endogenous in U2OS and HCT116)) (UniProt P38936); assay: co-IP; endogenous proteins in U2OS and HCT116 cells with torin-1, in the presence of MG132
[6] = biological target: exogenous human p21 expressed in 293T cells (human) (UniProt P38936); assay: co-IP; 293T cells expressing exogenous human p21, with torin-1, in the presence of MG132
[7] = biological target: exogenous human p21 expressed in 293T cells (human) (UniProt P38936); assay: condition: only with rapamycin (4E-BP1 still phosphorylated); co-IP; 293T cells expressing exogenous human p21, with rapamycin, in the presence of MG132
[8] = biological target: exogenous human p21 expressed in 293T cells (human) (UniProt P38936); assay: condition: only without torin-1 (untreated cells, 4E-BP1 phosphorylated by mTORC1); co-IP; 293T cells expressing exogenous human p21, without torin-1, in the presence of MG132
[9] = biological target: flag-p21 (human), pMT5-Flag-p21 (human) (UniProt P38936); assay: co-IP; 293T cells transfected with 4E-BP1-4A and flag-p21 plasmids; lysates immunoprecipitated with either anti-4E-BP1 or anti-flag antibodies after MG132 (25 uM) for 5 h; western blot
[10] = biological target: T2, p21 in TSC2-depleted MEFs (UniProt P39689); assay: co-IP; TSC2-depleted MEFs, in the presence of MG132 (Supplementary Fig. 4d)
T2 sequence: T1 sequence

[11] = biological target: p21 in p53-defective HCT116 cells (UniProt P38936); assay: co-IP; p53-defective HCT116 cells, in the presence of MG132 (Supplementary Fig. 4c)
[12] = biological target: p21 (CDKN1A), endogenous in human cell lines U2OS and HCT116 (human (endogenous in U2OS and HCT116)) (UniProt P38936); assay: co-IP; HCT116 expressing Tet-On-inducible 4E-BP1 mutants, doxycycline (1 ug/ml) for 24 h; lysates immunoprecipitated with anti-p21 antibodies; immunoblot
[13] = biological target: 4E-BP1-4A (phosphorylation-defective mutant), transfected in 293T cells (UniProt Q13541); assay: co-IP; 293T cells transfected with 4E-BP1-4A and flag-p21 plasmids; lysates immunoprecipitated with either anti-4E-BP1 or anti-flag antibodies after MG132 (25 uM) for 5 h; western blot
[14] = biological target: eIF4E (cells not told; Supplementary Fig. 3f and 4e) (UniProt P06730); assay: co-IP; eIF4E with endogenous 4E-BP1, 4E-BP1-4A and p21, in the presence of MG132 (Supplementary Fig. 4e); cells not given

Question: What does the source list for “4E-BP1, endogenous in WT MEFs (from UniProt Q60876 1-117)”?
Answer: binding [1]: no binding; binding [2]: binds

Question: “4E-BP1, endogenous in human cell lines U2OS, HCT116 and 293T (from UniProt Q13541 1-118)” was tested. Which binding [3] did it give?
Answer: no binding

Question: What about the binding [4] of the same substance?
Answer: no binding

Question: What about the binding [5] of the same substance?
Answer: binds

Question: And the binding [6]?
Answer: binds

Question: And the binding [7]?
Answer: no binding

Question: And the binding [8]?
Answer: no binding

Question: With “4E-BP1-4A (phosphorylation-defective mutant), transfected in 293T cells (from UniProt Q13541 1-118)” as the substance, how does the binding [9] read?
Answer: binds

Question: For “4E-BP1-4A in TSC2-depleted MEFs (from UniProt Q13541 1-118)”, which binding [10] is on record?
Answer: binds

Question: How did the binding [11] turn out when “4E-BP1-4A in p53-defective HCT116 cells (from UniProt Q13541 1-118)” was run?
Answer: binds

Question: How did the binding [12] turn out when “4E-BP1-4A+LM-AA (eIF4E-binding-defective double mutant), Tet-On inducible in HCT116 cells (from UniProt Q13541 1-118)” was run?
Answer: binds

Question: How did the binding [12] turn out when “4E-BP1-4A, Tet-On inducible in HCT116 cells (pCW57.1-4E-BP1-4A) (from UniProt Q13541 1-118)” was run?
Answer: binds

Question: With “flag-p21 (human), pMT5-Flag-p21 (from UniProt P38936 1-164)” as the substance, how does the binding [13] read?
Answer: binds

Question: For “p21 (cells not told; Supplementary Fig. 4e) (from UniProt P38936 1-164)”, which binding [14] is on record?
Answer: no binding
